Assay results taken from paper PMC10582448, “The Histone Chaperones SET/TAF‐1β and NPM1 Exhibit Conserved Functionality in Nucleosome Remodeling and Histone Eviction in a Cytochrome c‐Dependent Manner” (Advanced Science, 2023).

Key:
Assay in all cases: optical tweezers with confocal fluorescence microscopy; λ DNA held at 10 pN, incubated ≈30 s in 100 nM of one core histone, then brought into 5 nM fluorescently labelled chaperone and imaged for 5 min; 25 mM HEPES, 50 mM KCl, 0.1 mM EDTA, pH 7.5; controls without histones showed no chaperone binding
Conditions in all cases: both partners purified
[1] = biological target: core histone H2B from Xenopus laevis (Xenopus laevis, UniProt P02281)
[2] = biological target: core histone H2A from Xenopus laevis (Xenopus laevis, UniProt P06897)
[3] = biological target: T1, core histone H4 from Xenopus laevis (Xenopus laevis, UniProt P62799)
T1 construct: Histone H4, Xenopus laevis, pET3a plasmid from Dr. Tim Richmond

binding result [1]: binds | binding result [2]: binds | binding result [3]: binds
B1: SET/template‐activating factor‐Iβ Q69C, labelled with Alexa Fluor 532 (natural protein)
chain: not shown
modifications: Alexa Fluor 532 C5 maleimide on the introduced cysteine (Q69C); labelling efficiency ≈95%
notes: SET/TAF-Iβ, human, full-length construct with the point mutation Q69C; The N-terminal 6xHis tag is told for the wild type construct in pET28a(+); also called SET/TAF‐Iβ; SET/TAF‐Iβ‐Q69C; source: E. coli BL21(DE3); after labelling passed over Superdex 200 size exclusion column
